Data reported in PubChem BioAssay (Tox21).
Values joined by “and” are separate entries in the source; they are usually repeats but may differ in a detail not shown here. Equal values may be shown once. This list was built around the results that the source calls inconclusive (neither active nor inactive); the mix of calls is not that of the screen. A potency beside an inconclusive call is a rough fit, not a confirmed value. The source holds several records for some structures; these can differ, active in one and inactive in another. Active and inactive are the calls of the source. Unless noted, the call rests on the fitted dose curve.

How the values were obtained:
[1] = qHTS assay for small molecule agonists of the p53 signaling pathway (AID 651631); conditions: HCT-116 p53RE-bla reporter, beta-lactamase FRET ratio, 16 h; activation: at 73.3 µM (top of the series) unless noted; further: nearly all actives have a fitted effect of over 15% in size
Summary of the method: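 Agonist mode screen using a stably integrated beta-lactamase gene under p53 response elements in HCT-116 cells. Compound exposure lasts 16 h at 37 °C; fluorescence intensity is measured following 2 h FRET substrate loading.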

[2] = qHTS assay for small molecules that induce genotoxicity in human embryonic kidney cells expressing luciferase-tagged ATAD5 - cell viability (AID 651634); further: nearly all actives have a fitted effect of over 25% in size
Summary of the method: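 HEK293T cells carrying luciferase-tagged ATAD5, 2,000 cells/well, exposed to compound for 15.5 hr at 37C. Viability read as live-cell protease activity by CellTiter-Fluor fluorescence after 30 min at 37C.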

[3] = qHTS assay for small molecule disruptors of the mitochondrial membrane potential (AID 720635; active means well fitted curve in the direction sought with a large enough effect in the repeat runs; inconclusive means weak or mixed curves; inactive means no such curve, though single readings can be large; an effect the other way counts as inactive or inconclusive); conditions: HepG2 mitochondrial membrane potential, Mito-MPS dye ratio; series mostly up to 83.2 µM
Summary of the method: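 HepG2 cells (2,000/well) attached overnight at 37C, then took compound for 1 hr at 37C, 5% CO2. Mito-MPS dye was added for 30 min; fluorescence was read at 490/535 nm (monomers) and 540/590 nm (aggregates).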

[4] = molecular target: Glucocorticoid receptor (Homo sapiens) (UniProt P04150); assay: qHTS assay to identify small molecule antagonists of the glucocorticoid receptor (GR) signaling pathway (AID 720692; active means well fitted inhibition curve with a large enough effect in the signal ratio in the repeat runs, not every such curve was filed as active; inconclusive means weak or mixed curves, or effect the other way; inactive means no such curve, though single readings can be large or run the other way; the % refers to the signal ratio); conditions: GR-bla HeLa, beta-lactamase FRET ratio, dexamethasone-stimulated, 18 h; series mostly up to 58.5 µM
Summary of the method: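 GR-bla HeLa cells carrying a GRE-driven beta-lactamase reporter received compound after 4 h plating, then dexamethasone (5 nM final). After 18 h at 37C, the FRET substrate was loaded for 2 h at room temperature and fluorescence read.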

[5] = qHTS assay to identify small molecule antagonists of the glucocorticoid receptor (GR) signaling pathway - cell viability counter screen (AID 720693; active means well fitted curve in the direction sought with a large enough effect in the repeat runs; inconclusive means weak or mixed curves; inactive means no such curve, though single readings can be large; an effect the other way counts as inactive or inconclusive; further: nearly all actives have a fitted effect of over 55% in size); conditions: GR-bla HeLa viability, CellTiter-Glo luminescence, 18 h, with 5 nM dexamethasone present; series mostly up to 58.5 µM
[6] = molecular target: Glucocorticoid receptor (Homo sapiens) (UniProt P04150); assay: qHTS assay to identify small molecule agonists of the glucocorticoid receptor (GR) signaling pathway (AID 720691; active means well fitted activation curve with a large enough effect in the signal ratio in the repeat runs, not every such curve was filed as active; inconclusive means weak or mixed curves, or effect the other way; inactive means no such curve, though single readings can be large or run the other way; the % refers to the signal ratio); conditions: GR-bla HeLa, beta-lactamase reporter ratio, 18 h; activation: at 62.4 µM (top of the series) unless noted
Summary of the method: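 GR-bla HeLa cells carrying a GRE-driven beta-lactamase reporter, exposed to compounds for 18 h at 37 C. Reporter activation read as fluorescence after 2 h with LiveBLAzer B/G FRET substrate at room temperature.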

[7] = qHTS assay for small molecule disruptors of the mitochondrial membrane potential - cell viability (AID 720634); further: nearly all actives have a fitted effect of over 20% in size
Summary of the method: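 HepG2 cells, 2,000 per well, attached overnight, then treated 1 hr at 37 C, 5% CO2. Viability read as ATP by CellTiter-Glo luminescence after 30 min at room temperature. Read in the same wells as the m-MPI membrane-potential dye assay.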
Potency means the concentration at half of the fitted maximal effect; tags describe the fitted curve by direction and shape or compound fluorescence and quenching.

UniProt P04150, sequence (P04150 whole entry, looked up): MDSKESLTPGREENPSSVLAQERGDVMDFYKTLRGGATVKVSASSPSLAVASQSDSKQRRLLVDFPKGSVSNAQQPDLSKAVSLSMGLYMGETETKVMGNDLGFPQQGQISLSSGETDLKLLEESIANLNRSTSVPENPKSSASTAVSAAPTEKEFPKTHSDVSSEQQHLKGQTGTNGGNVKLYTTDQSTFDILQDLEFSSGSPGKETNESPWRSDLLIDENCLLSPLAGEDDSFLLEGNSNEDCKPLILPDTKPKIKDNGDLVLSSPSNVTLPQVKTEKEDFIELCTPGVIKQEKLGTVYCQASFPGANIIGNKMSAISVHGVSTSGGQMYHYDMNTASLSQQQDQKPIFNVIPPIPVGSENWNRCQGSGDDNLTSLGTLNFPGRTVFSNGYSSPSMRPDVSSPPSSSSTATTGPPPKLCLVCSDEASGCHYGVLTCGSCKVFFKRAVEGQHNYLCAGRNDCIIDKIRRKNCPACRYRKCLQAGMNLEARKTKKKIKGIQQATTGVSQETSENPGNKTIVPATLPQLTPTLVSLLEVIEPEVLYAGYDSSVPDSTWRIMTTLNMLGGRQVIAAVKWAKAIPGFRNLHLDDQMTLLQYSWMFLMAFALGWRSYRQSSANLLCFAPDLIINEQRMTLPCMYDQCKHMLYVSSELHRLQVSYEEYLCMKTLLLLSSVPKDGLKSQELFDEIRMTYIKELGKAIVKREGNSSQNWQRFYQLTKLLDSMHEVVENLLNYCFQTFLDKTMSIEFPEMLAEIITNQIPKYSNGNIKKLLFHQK

O=C(Nc1ccc(S(=O)(=O)N2CCOCC2)cc1)c1cc(Cl)ccc1NS(=O)(=O)c1ccc(Cl)s1
Potency [1]: active: 26.6 µM | Potency [2]: inconclusive: 21.1 µM [falling, partial curve, poor fit] | Potency [3]: inconclusive: 1.33 µM [activator, partial curve] | Potency [4]: active: 26.8 µM | Potency [5]: active: 16.9 µM

Cc1occc1SSc1ccoc1C
Potency [1]: inconclusive: 34.4 µM [activator, partial curve] | Potency [2]: inconclusive: 30.6 µM [falling, partial curve, poor fit] | Potency [4]: inconclusive: 49 µM [activator]

CCN(CC)CCOc1ccc(C(O)(Cc2ccc(Cl)cc2)c2ccc(C)cc2)cc1 (stereo not given)
Potency [1]: inconclusive: 33.5 µM [cytotoxic] | Potency [2]: inconclusive: 29.8 µM [falling, single point] | Potency [3]: inconclusive: 4.22 µM [activator, full curve] | Potency [6]: inconclusive: 30.1 µM [cytotoxic, single point] | Potency [4]: inconclusive: 30.1 µM [cytotoxic, single point] | Potency [5]: inconclusive: 26.8 µM [cytotoxic]

CCCCCCc1ccc(O)cc1O
Potency [1]: inconclusive: 29.8 µM [activator] and inconclusive: 61.3 µM [partial curve] and inconclusive: 61.1 µM [activator, single point] | Potency [7]: inconclusive: 13.3 µM [cytotoxic, partial curve, poor fit] and inconclusive: 27.4 µM [cytotoxic] and inconclusive: 27.3 µM [cytotoxic, partial curve, poor fit] | Potency [3]: active: 5.96 µM and active: 4.87 µM and active: 6.86 µM | Potency [6]: inconclusive: 55.1 µM [cytotoxic] and inconclusive: 54.9 µM | Potency [4]: inactive and inconclusive: 55.1 µM [cytotoxic] and active: 49 µM | Potency [5]: inconclusive: 61.8 µM [cytotoxic, single point] and inconclusive: 54.9 µM [cytotoxic, single point]
